# Measured values from paper PMC4336329 (PLoS ONE, 2015).
# About 2,200 (0.71%) of roughly 310,000 compounds showed an effect of 50% or more. The effect is printed as a negative number. The list shows a part of the results.
# Molecular target: human ether-à-go-go-related gene (hERG) potassium channel (human, UniProt Q12809)
# Assay: primary screen, population patch clamp on CHO cells stably expressing hERG
# Chain of human ether-à-go-go-related gene (hERG) potassium channel (Q12809 whole entry, looked up): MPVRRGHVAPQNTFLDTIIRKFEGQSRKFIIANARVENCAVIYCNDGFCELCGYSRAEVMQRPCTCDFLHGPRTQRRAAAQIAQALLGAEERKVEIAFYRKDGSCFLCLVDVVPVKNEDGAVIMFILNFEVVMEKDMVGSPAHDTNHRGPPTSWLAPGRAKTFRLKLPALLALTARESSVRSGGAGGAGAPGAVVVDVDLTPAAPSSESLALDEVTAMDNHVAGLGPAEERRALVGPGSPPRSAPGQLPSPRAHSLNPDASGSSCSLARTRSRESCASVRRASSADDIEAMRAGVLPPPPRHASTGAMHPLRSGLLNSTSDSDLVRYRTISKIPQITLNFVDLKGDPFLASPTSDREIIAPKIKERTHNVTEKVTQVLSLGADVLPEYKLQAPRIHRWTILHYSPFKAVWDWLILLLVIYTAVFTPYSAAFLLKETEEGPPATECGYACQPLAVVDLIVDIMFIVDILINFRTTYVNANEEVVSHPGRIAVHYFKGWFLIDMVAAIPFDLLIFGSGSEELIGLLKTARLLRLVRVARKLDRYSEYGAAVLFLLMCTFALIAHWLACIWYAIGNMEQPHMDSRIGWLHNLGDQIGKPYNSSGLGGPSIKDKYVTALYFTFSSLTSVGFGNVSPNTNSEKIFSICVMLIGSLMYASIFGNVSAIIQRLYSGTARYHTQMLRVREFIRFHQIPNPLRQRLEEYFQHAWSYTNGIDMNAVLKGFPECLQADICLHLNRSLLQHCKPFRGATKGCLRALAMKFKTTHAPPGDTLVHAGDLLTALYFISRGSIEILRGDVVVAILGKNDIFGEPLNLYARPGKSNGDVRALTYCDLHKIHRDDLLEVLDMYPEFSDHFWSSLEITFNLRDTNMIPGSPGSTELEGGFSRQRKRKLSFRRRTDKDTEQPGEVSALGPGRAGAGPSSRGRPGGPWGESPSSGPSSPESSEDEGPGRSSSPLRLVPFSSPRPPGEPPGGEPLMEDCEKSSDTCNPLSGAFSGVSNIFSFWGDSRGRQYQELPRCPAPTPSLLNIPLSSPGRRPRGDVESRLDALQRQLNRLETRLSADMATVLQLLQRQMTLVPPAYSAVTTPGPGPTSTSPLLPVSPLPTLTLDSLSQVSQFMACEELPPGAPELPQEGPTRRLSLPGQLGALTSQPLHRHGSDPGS
row,Compound,"hERG current change (%, negative = inhibition) at 1uM"
1,O=C(NC1CCCCC1)C(c1ccccc1)N1CCCC1 (stereo not drawn),9.11%
2,COc1ccc(-c2nnc3c4ccccc4c(C)nn23)cc1,1%
3,O=C(NC1CC2CCCC(C1)N2S(=O)(=O)c1ccccc1)c1ccccc1 (stereo not drawn),-9.46%
4,COc1ccc(-n2c(C)c(C)c3c(NCCO)ncnc32)cc1,13.9%
5,COc1ccc(N2CCN(C(=O)/C(C#N)=C/c3ccccc3)CC2)cc1,6.04%
6,CC(C)CCn1c(=O)c2ccccc2n2c(CN3CCCC3)nnc12,12.2%
7,O=C(COC(=O)c1cc(S(=O)(=O)NCc2ccccc2)ccc1O)c1cc2ccccc2o1,13.3%
8,CC(C)c1ccc(-n2c(O)c(C=NCCN3CCNCC3)c(=O)[nH]c2=S)cc1,24.2%
9,COc1ccc(C(=O)COC(=O)/C=C/c2ccccc2)cc1,6.38%
10,CN(CCOc1ccc(Cl)cc1)CC(=O)Nc1ccc(OC(F)(F)F)cc1,14.1%
11,O=C(OC1CCOC1=O)c1cncc(Br)c1 (stereo not drawn),-12%
12,Cc1cc(C(=O)N/N=C/c2ccc[nH]2)n[nH]1,13.9%
13,COc1ccccc1N1CCN(C(=O)Cn2nnc(-c3ccncc3)n2)CC1,-7.1%
14,Cc1c(N=C2SC(CC(=O)Nc3ccccc3)C(=O)N2CCN2CCOCC2)c(=O)n(-c2ccccc2)n1C (stereo not drawn),11.2%
15,O=C(c1ccc2c(c1)OCO2)N1CCN=C1SCc1ccccc1,-5.15%
16,O=C(COC(=O)C1CCN(S(=O)(=O)c2cccs2)CC1)NCc1ccccc1,-5.11%
17,NC(=O)c1nc(-c2ccco2)nc2c1[nH]c(=O)n2-c1ccc(Cl)c(Cl)c1,2.34%
18,Clc1ncc(Cn2cccn2)s1,10.5%
19,COc1ccc(S(=O)(=O)N2CC3CCCN3c3cc(C(F)(F)F)ccc32)cc1 (stereo not drawn),15.5%
20,COc1ccc(NC2CCCN(C(=O)c3ccc4nccnc4c3)C2)cc1OC (stereo not drawn),13.9%
21,Cc1ccc(C2(c3noc(CN(C)CC4CCCCO4)n3)CCCC2)cc1 (stereo not drawn),16.6%
22,COC(=O)C(CC(C)C)Oc1ccc2c(C)cc(=O)oc2c1 (stereo not drawn),7.02%
23,O=C(NCCC(=O)N1CCCCCCC1)c1ccc(Br)cc1,3.66%

row,Compound,"hERG current change (%, negative = inhibition) at 1uM"
1,O=C(O)C(=O)O.O=[N+]([O-])c1ccccc1CNC1CCCCCC1,11.3%
2,CCc1cccc(C)c1NC(=O)CSc1nnc(C)o1,-4.09%
3,O=C(NCC(=O)N(c1ccccc1)C(C(=O)NC1CCCCC1)c1cccnc1)c1cccs1 (stereo not drawn),5.12%
4,CC(C)Cn1cc(C(=O)NCCCN2CCC(C)CC2)c2c3ccccc3n(C)c2c1=O,2.99%
5,COc1ccc(S(=O)(=O)NNC(=O)c2cccs2)cc1,7.26%
6,Cl.O=[N+]([O-])c1ccccc1/C=N/NC1=NCCCCC1,-0.325%
7,C=CCn1c(=S)[nH]c2nc3c(cc2c1=O)COC(C)(C)C3,14%
8,CCC1Oc2ccccc2N(CC(=O)NC2CCCC2)C1=O (stereo not drawn),9.35%
9,Cc1ccnc(N/C=C/C(=O)c2ccc(Br)cc2)c1,13%
10,O=C(O)Cc1c[nH]c2cccc(O)c12,14%
11,CCCCC1S/C(=N/N=C/c2ccc(OC)cc2)N(Cc2ccc(OC)cc2)C1=O (stereo not drawn),15.1%
12,COc1ccc([C@H]2CC(=O)C=C(C#CC(C)(C)C)C2)cc1,15.1%
13,NS(=O)(=O)c1ccc(-c2ccc(C=C3C(=O)NC(=O)NC3=O)o2)cc1,9.14%
14,NC(=O)NC(c1ccc(Cl)cc1)c1ccccc1Cl (stereo not drawn),7.43%
15,O=S(=O)(c1ccc(Cl)cc1)c1nc(-c2ccco2)oc1N1CCOCC1,-16.7%
16,COc1ccc2c(=O)c(N3C(=O)c4ccccc4C3=O)c(C)oc2c1,7.41%
17,c1ccc(SCc2nc3ccccc3[nH]2)cc1,-3.17%
18,O=S1(=O)CCN2C(=N1)Sc1c2ccc2c1CCCC2,10%
19,C=CCn1c(-c2csc(-c3ccc(Cl)cc3)n2)n[nH]c1=S,8.49%
20,Cc1cc(=O)n2nc(N3CCCC(C(=O)N4CCOCC4)C3)sc2n1 (stereo not drawn),-1.57%
21,CCOC(=O)c1nc(NCc2ccccc2F)c2ccccc2n1,10.1%
22,COc1ccc(CN=Cc2c(C(F)(F)F)[nH][nH]c2=O)cc1,14.6%
